This is an account of results in the RNAGym collection of RNA variant scans (doi:10.1093/nar/gkz1192).

B1: CPEB3 Ribozyme (parent)
chain: UAACAGGGGGCCACAGCAGAAGCGUUCACGUCGCAGCCCCUGUCAGAUUCUGGUGAAUCUGCGAAUUCUGCUGUAUAUCUC

Read counts are not given, so values of variants with three or more changes are uncertain.

This series covers variants of B1. Kind of series: self-cleavage, relative activity (ratio to wild type); higher = more cleavage; in vitro, sequencing. Summed up:
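For each CPEB3 ribozyme variant, relative activity is its cleaved/total read fraction divided by the unmutated ribozyme's. Barcoded error-prone PCR libraries were transcribed by T7 RNA polymerase (5 hours, 37°C) and held in DNase I for 15 min before an EDTA stop, with cleavage occurring throughout. Template-switching reverse transcription and Illumina sequencing were used to read the RNAs. A 5-read minimum applied, and results are the mean of three batches.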
On to G6U A20G U26A A45C A56G, for which the self-cleavage amounted to 0.24.

For the variant G8A A18G U26A U41A A45G U67C U78C, the self-cleavage was 0.05.

As for G6A U41C U54A G61U U72A, the self-cleavage turned out to be 0.2.

Turning to G7U U54A A56U A75G, the self-cleavage was 0.08.

Consider G7U A45G U49C, for which the self-cleavage was found to be 0.37.

As for G7U A13G G22A U31C U51C A64U, the self-cleavage is 0.05.

In the case of G7U G10C A18G U80C, the self-cleavage was found to be 0.33.

In the case of G7A G10A A65U, the self-cleavage was determined as 0.06.

With G7A A18U A20U A45G U49A A64U C68G, the self-cleavage was 0.03.

As to G6U C11A A18G U31C U72C, the self-cleavage amounted to 0.23.

As to G7U U43A G52A U80C, the self-cleavage was 0.32.

In the case of G6U A13U U43C, the self-cleavage turned out to be 0.16.

G7A A13G U43A U51C G63A U80C: the self-cleavage was determined as 0.06.

With G7U A13C A28U U60A A65G, the self-cleavage was found to be 0.17.

For G7A C12G A65G A75G, the self-cleavage was 0.09.

With G8A A18U U26A U54C C59A U72A, the self-cleavage worked out at 0.04.

Consider G6U A13G U48A A65U, for which the self-cleavage amounted to 0.15.

G6A G33A U49C: the self-cleavage was determined as 0.25.

Turning to G8A A15G A20G, the self-cleavage is 0.3.

Consider G6A U26C C44G U49C U66C A77G, for which the self-cleavage came out at 0.06.

Turning to G6A U26A U48C A56G A64U, the self-cleavage turned out to be 0.11.

For the variant G7A G33U U41C U48C U60A U74C, the self-cleavage is 0.14.

As for G6U A18G U51C C71A, the self-cleavage was found to be 0.04.

For the variant G7A A15G A18G A20U U26A A65G U78C, the self-cleavage was 0.04.

On to G6C G8U U54C A57G U74A, for which the self-cleavage is 0.08.

For the variant G6U U26C A28U U31A U48C C71A, the self-cleavage was determined as 0.09.

On to G8A A20G U25G U48C A56G, for which the self-cleavage came out at 0.07.

On to G7A A15G U48A A65G, for which the self-cleavage turned out to be 0.39.

On to G7U A13U A35G G46U G70A, for which the self-cleavage came out at 0.06.

For the variant G7A A35U A45U C62U A75U, the self-cleavage amounted to 0.04.

Consider G7C A21G U69C, for which the self-cleavage was 0.25.

For the variant G8A A20G U25G A35U, the self-cleavage was found to be 0.04.

G7A A20G U60C U69G: the self-cleavage stood at 0.14.

For G6U U25C A28G A35U G63U, the self-cleavage was 0.06.

For the variant G8A A20G G22U G30U A45G U76A, the self-cleavage came to 0.04.

With G6A G63U U69A, the self-cleavage was 0.31.

Regarding G7A A21U U43C U51C, the self-cleavage stood at 0.06.

For the variant G7A A45G U76C, the self-cleavage was determined as 0.08.

With G8A A13G A15G G55U C62U A64G, the self-cleavage turned out to be 0.05.

For G6A U66C U80A, the self-cleavage stood at 0.21.

For the variant G6C A35U G52C C59A, the self-cleavage was 0.16.

Take G7U G30U U41A U76C: the self-cleavage came out at 0.16.

On to G7A A21G U43C A45G U48C U80C, for which the self-cleavage was determined as 0.05.

As for G6A G9C U58A, the self-cleavage worked out at 0.27.

Consider G7C G22A U25C U31C U43A, for which the self-cleavage stood at 0.06.

G6U A15U U51A G52U U58A: the self-cleavage was 0.09.

In the case of G6U A35G U51A, the self-cleavage was 0.45.

Regarding G6C U25G A47G, the self-cleavage turned out to be 0.27.

For the variant G8A A15U A18U U41G U49A A57G U66C, the self-cleavage came to 0.1.

On to G7U C11U U48C U51A, for which the self-cleavage came out at 0.05.

Turning to G6U A21G U58C U60C C62U U78G, the self-cleavage is 0.05.

For the variant G6A U25C U41C A45U U49C A75G, the self-cleavage turned out to be 0.06.

As for G7A U26C U43A, the self-cleavage stood at 0.4.

As for G7U A15G G22C G30U U41A G73C, the self-cleavage was determined as 0.19.

Take G6U U41C A56U C62U U72C U76A: the self-cleavage turned out to be 0.04.

G6U A15U U25C U43C U58C: the self-cleavage was 0.24.

As for G6A C50G A75U, the self-cleavage was found to be 0.14.

As to G7A G46A U78A, the self-cleavage stood at 0.36.

On to G8A A20G C27U G53C, for which the self-cleavage stood at 0.04.

As for G7C A13G U43C U54A, the self-cleavage worked out at 0.18.

Regarding G7U U26A U67C U78C, the self-cleavage stood at 0.04.

For the variant G8A A20G U25A A65G, the self-cleavage was 0.05.

Regarding G7A A13U U25C U41C, the self-cleavage was determined as 0.17.

On to G7A U26A U31A U41C U67A, for which the self-cleavage came out at 0.05.

Take G6C U26C A57U U78C: the self-cleavage is 0.21.

G6A G9A U31A A56G U69C: the self-cleavage is 0.06.

G6U C32A A77G: the self-cleavage amounted to 0.14.

With G7U U31C U41C U58A, the self-cleavage turned out to be 0.06.

On to G7A A13G A35G A45G U67C U78C, for which the self-cleavage worked out at 0.06.

As to G8A A13G A18G U60C U66G, the self-cleavage stood at 0.06.

As to G7A U51C U69A, the self-cleavage stood at 0.07.

For the variant G8A A15G A47G U60C, the self-cleavage came out at 0.3.

In the case of G7C U25A U43A, the self-cleavage worked out at 0.07.

In the case of G7A G8A C40U G42C U67C, the self-cleavage was 0.13.

On to G8A A13G G16A U60A, for which the self-cleavage is 0.17.

As to G8A A18G A21G, the self-cleavage was found to be 0.31.

For the variant G7U A47G U60C A65G U74C A75U, the self-cleavage was found to be 0.11.

As to G6A G7A C32A U49C A56U, the self-cleavage was 0.24.

On to G7U G9A C12G G19U U43A U60C U72A, for which the self-cleavage was 0.05.

For G7C U26C U76C, the self-cleavage stood at 0.06.

On to G7A U60A A65U, for which the self-cleavage was determined as 0.05.

Consider G7C G9A U78A, for which the self-cleavage came out at 0.06.

With G8A A13U A20C A21G U41C U43C, the self-cleavage came to 0.07.

Turning to G8A A13U U51A U66A U76C, the self-cleavage turned out to be 0.06.
